From paper PMC7718735
Results are given in words; binding and its absence hold for the method and conditions named. Some results given as binding are weak or reduced against the parent protein; the word gives no strength.

Columns and labels:
Experiment in all cases: two-hybrid; split-ubiquitin membrane yeast two-hybrid (MYTH) in S. cerevisiae; bait-Cub-LexA-VP16 strains mated with the arrayed Nub prey library, diploids spotted in quadruplicate on SD-leu-trp-ade-his with 25 mM 3-AT, imaged every 24 hr for 4 days; positive by a colony density cutoff
[1] = target: T1, Ima1 MYTH bait (S. pombe) (UniProt O13681)
T1 sequence: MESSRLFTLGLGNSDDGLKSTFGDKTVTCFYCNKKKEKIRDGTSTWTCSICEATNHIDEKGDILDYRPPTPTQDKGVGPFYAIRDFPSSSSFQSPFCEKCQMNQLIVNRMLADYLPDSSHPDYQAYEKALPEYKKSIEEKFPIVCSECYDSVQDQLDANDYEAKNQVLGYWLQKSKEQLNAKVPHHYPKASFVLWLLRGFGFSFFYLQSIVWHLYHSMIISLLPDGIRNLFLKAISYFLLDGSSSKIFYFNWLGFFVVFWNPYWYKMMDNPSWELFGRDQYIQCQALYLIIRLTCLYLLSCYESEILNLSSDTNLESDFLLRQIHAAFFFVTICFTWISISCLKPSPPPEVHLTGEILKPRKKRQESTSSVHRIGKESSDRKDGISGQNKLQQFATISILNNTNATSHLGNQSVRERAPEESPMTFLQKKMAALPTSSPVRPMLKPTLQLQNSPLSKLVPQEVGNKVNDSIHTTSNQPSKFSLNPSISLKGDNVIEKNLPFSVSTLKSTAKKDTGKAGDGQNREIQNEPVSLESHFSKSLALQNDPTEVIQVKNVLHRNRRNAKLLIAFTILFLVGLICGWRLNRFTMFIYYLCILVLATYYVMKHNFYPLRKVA

[2] = target: T2, Cut11 L521F MYTH bait (S. pombe) (UniProt O13961)
T2 sequence: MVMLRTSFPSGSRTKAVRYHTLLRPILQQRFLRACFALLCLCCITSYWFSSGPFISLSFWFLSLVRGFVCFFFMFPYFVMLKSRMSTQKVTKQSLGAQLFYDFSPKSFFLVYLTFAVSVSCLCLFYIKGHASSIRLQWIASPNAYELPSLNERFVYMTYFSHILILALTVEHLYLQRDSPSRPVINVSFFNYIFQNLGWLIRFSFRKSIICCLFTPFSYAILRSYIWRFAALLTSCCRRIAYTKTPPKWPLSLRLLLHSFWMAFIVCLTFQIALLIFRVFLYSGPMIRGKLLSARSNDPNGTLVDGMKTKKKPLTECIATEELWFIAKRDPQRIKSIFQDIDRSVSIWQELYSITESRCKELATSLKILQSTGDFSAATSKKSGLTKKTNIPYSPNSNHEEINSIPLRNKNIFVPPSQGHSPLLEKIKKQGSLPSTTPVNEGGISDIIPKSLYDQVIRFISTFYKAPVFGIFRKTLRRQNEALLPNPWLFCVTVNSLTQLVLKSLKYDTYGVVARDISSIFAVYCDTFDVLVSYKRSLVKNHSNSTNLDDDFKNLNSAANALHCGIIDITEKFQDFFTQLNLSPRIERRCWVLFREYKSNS

[3] = target: T3, Cut11 MYTH bait (wild type) (S. pombe) (UniProt O13961)
T3 sequence: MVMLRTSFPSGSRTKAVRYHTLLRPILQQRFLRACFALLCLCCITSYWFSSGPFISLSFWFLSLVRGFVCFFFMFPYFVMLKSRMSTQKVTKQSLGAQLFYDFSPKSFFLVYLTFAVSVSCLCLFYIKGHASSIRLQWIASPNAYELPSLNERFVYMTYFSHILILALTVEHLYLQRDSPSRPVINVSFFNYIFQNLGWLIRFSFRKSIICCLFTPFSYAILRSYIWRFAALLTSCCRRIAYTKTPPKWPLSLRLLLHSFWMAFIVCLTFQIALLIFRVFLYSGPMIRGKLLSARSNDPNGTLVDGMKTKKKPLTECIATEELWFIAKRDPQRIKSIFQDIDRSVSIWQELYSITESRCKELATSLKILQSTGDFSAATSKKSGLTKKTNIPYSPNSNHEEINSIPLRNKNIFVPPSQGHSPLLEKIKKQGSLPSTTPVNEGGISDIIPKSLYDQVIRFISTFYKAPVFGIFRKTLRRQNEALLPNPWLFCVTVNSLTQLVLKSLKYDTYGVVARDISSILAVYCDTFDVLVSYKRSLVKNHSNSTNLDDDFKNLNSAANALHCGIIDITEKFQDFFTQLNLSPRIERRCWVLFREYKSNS

[4] = target: T4, Lem2 MYTH bait (S. pombe) (UniProt Q10109)
T4 sequence: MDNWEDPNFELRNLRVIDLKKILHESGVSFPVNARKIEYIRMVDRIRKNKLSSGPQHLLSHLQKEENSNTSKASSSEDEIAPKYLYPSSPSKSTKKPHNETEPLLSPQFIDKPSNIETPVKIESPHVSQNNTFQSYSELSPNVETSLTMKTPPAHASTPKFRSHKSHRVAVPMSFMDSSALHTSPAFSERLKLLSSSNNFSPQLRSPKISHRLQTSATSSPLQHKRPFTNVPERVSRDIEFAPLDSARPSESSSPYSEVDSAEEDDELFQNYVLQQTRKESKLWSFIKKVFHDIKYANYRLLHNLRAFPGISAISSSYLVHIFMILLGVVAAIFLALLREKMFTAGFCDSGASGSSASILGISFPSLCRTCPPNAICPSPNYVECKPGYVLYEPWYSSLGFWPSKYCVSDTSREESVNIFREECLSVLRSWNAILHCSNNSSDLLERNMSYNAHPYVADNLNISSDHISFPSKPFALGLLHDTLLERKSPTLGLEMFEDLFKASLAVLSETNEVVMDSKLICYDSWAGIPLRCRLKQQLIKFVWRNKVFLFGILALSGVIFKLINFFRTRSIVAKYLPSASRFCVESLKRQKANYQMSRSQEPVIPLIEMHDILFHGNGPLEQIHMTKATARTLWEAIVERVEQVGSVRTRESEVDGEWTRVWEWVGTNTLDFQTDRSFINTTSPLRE

B1: Sur2 MYTH prey (protein, UniProt O94298 1-293)
chain: MVTTVEMLTTWNPVTVSLVSPVIIYWVASAFFGFLHYIELPVFEKYRIHPPEEIARRNRVPQMAVVKAVLFQQLCEVVVGIALAMFEGYPEPIDEAKQMLRYEAFFSKNLPALLQVAPFAPKLAYNFIVPAFQYFFAFFIIDSWQYFWHRYLHYNKKLYNMIHAHHHRLQVPYAMGALYNHPFEGLILDTFGAGVAYLAAGLSPQQAVIFFTLSTLKTVDDHCGYVFPYDPLQMFFANNARYHDLHHQPYGFQKNFSQPFFTFWDHVLGTYMPPKSETPYEKKQKAKNAKKVN
binding [1]: binds

B2: Rbd2 MYTH prey (protein, UniProt O74926 1-251)
chain: MIFMILGRSKEFILKLPIWTQIITYIAILVYALSFFGISTGVLSLSWIGLLQKRQLYEIITYVTLHLSMLHIVFNFVSLLPAMSQFEKKQGTLACILVTVIPYTLFPGIMHLIVYHFFLRKDYVSIAGLSGWAFAFISASCVHSPQRLISFFNLFSIPAYCFPIIYLIMTTILVPKASFIGHASGAVMGYCTPFMLGSIPLKSWAQNVDPIFQSWVKNYHSFDQLSHAQLPIAEPLSTFSSFPGKGTRLGG
binding [1]: binds

B3: Cho1 MYTH prey (protein, UniProt O74827 1-196)
chain: MAIFEINNSFLICAVSIALNPLLWNIAARSEYNHKTLTKLANGDSKKACYMLAACIFVAGIVRDLIYQNALKQQPTLGIFMNPLVQGIAKLIFCFGSVLVLSSMYKLGLVGTYLGDYFGFLLPERVSGFPFNVNDNPMYNGSTLCFLSTALRYGKVAGLLLTLEVFFVYRIALKFEEPFTAKIYAARDSKQAKKSE
binding [1]: binds

B4: Yea4 MYTH prey (protein, UniProt O74750 1-316)
chain: MIASALSFIFGGCCSNAYALEALVREFPSSGILITFSQFILITIEGLIYFLLNDVQSLKHPKVPRKRWFVVVVMFFAINVLNNVALGFDISVPVHIILRSSGPLTTMAVGRILAGKRYSSLQIGSVFILTIGVIIATLGNAKDLHLHVESMTRFGIGFTILVITQILGAIMGLVLENTYRIYGSDWRESLFYTHALSLPFFLFLLRPIRSQWNDLFAIHTKGFLNLPSGVWYLCFNTLAQYFCVRGVNALGAETSALTVSVVLNVRKFVSLCLSLILFENEMGPAVKFGALLVFGSSAVYASARSKPKTNGLKKND
binding [1]: binds

B5: Bem46 MYTH prey (protein, UniProt P54069 1-299)
chain: MAGSLSSAIFNVLKYSGMASLAVTLIALGFLYKYQKTLVYPSAFPQGSRENVPTPKEFNMEYERIELRTRDKVTLDSYLMLQSESPESRPTLLYFHANAGNMGHRLPIARVFYSALNMNVFIISYRGYGKSTGSPSEAGLKIDSQTALEYLMEHPICSKTKIVVYGQSIGGAVAIALTAKNQDRISALILENTFTSIKDMIPTVFPYGGSIISRFCTEIWSSQDEIRKIKKLPVLFLSGEKDEIVPPPQMVLLFGLCGSAKKKFHSFPKCTHNDTCLGDGYFQVIADFLAENDINTPAS
binding [1]: binds

B6: Nup40 MYTH prey (protein, UniProt O13838 1-371)
chain: MSFGGSGSITNRSTLKPLSVDDLRSPSPQKEYRGFRTSVSNIPQEKKFVPSHLSHFGSSQQRRFAPEVSSPLAEPYESSSSFRLSLSSPPSSKFGGPSFGTPKPFLHTNRLGTGSLIEDAPPTQSIYDFSSSRQINALNVGQSSSPFSPVSEKVYDPSFTMSGAPQDSNTSVIVFGFPPELTNQVIAEFSRFGTIISENSLTASSAGFTPSKGPISGNWLQLTYAEPSSAAKAVLSNGMLINDSFMVGCIYSPAEAKEHVPKTLRNSNKDLEMTDASSSETSMSIPVHADAHFQSQSGLGKKVIVQHKNDIFKSSQKHQPRNWLFHYLFGFGSTEPIDEEEKSKTASDNTSLQTSLFGKIVQVVLHTLFGF
binding [2]: binds | binding [3]: binds

B7: Pep12 MYTH prey (protein, UniProt O94651 1-263)
chain: MSFVDLEQGRHKIEQNGDFPALASSIAQEIHALRGNTAAIHRYLVNNLTKNLHEVLEQSRELSQKVRSDLVRLANIKDTKYGEEASSFALSKLTRDFNTVLAELQRVQQKCAQQESDSVAAAQAALNQDVGQHFIEEEERNVSLSNNSSGQRQPLTESKISNSQLEYQQRLINERQGEIENLTQGINELNEIFRDLSTIINEQGELVTNIEYNVGNTSTNTKNASRQLQIANEHSRKARKRSFCFLVILVVILGVILTALIMG
binding [1]: no binding

B8: Nup85 MYTH prey (protein, UniProt Q9UUE5 1-675)
chain: MESSDEVDLPVYHLQNAPIENGKLNDWRSKGRTVAFKLHPFLRKGLAYINNKEFDENTLKSDKFEEVESLVYEFSTPSTLIEPNYLLTAWHELWEELQDTYMTPILDSEANLLLLTQFYGKISSLFRSKIIQVLEELQSRINEGEKDCQPVLDSLWEVESAWRCAEAIYFPPSSPYTLSTGILDWVNAYDPQPIADDGLEIMAYRIPYQHPEFWPYVNKTAIRGLFEQTISCLEMSGLTKEWPVLKETVDELIDILRYSPCTHQKRIRSVSDFERRWKLWRSRLANLRHVVKKHRDIDSEVLDDFVVLLDILNGNKEVIMLSCAHWQEYFSALAFLYGPLDCKNPEDISLLYQLATGEDSKFYVNGTIEYEQICVNLCSNEPLNAIKHAYLLDLGLAVHLADLLSKSGHLRDYITEEYPITLREHLILEYGQCVLESRNLWQTSFAYWKCVADSGYQRIKACIPYVPLSDVDAKETALQLCKQLKLRDEAQLVLTHWADELIARNHYGEALIALDNAANYSALNRVTWELFDICIAEKKSFSPDKDELLYELFSSPKACTPTLASIISPAATIHQYFFYLQHKKELNASELLVGLLTMVDFPSSRFPKLLELLHEFLNNPLQSNSTDFKLSLVNVYDCIAVLQDQQSTVKDQQLLLSIHERLSSAISWYFLHLKK
binding [3]: no binding | binding [4]: no binding
